In the supplement of paper PMC12217912:
This is one part of the list. Sequences were assembled here from the parent chain. Values near 0.05 are background.

B1: TEV protease; numbered along this chain (parent)
chain: MGESLFKGPRDYNPISSSICHLTNESDGHTTSLYGIGFGPFIITNKHLFRRNNGTLVVQSLHGVFKVKDTTTLQQHLVDGRDMIIIRMPKDFPPFPQKLKFREPQREERICLVTTNFQTKSMSSMVSDTSCTFPSGDGIFWKHWIQTKDGQCGSPLVSTRDGFIVGIHSASNFTNTNNYFTSVPKNFMELLTNQEAQQWVSGWRLNADSVLWGGHKVFMVKPEEPFQPVKEATQL

Variants of: B1
Assay: raw area under fraction-flipped curve 0-4 h after induction (AUC4h, not background-subtracted), DNA-recorder readout of cleavage of the substrate (dimensionless); higher = more cleavage of the substrate by the protease variant
Conditions: temperature: 34 °C; time window: 0-4 h after rhamnose induction
Experimental: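 In vivo DNA recorder in E. coli TOP10(DE3) ΔrhaA at 34 °C. Each TEVp single-site mutant (parent TEVp 0) is paired with a single-site variant of the 7-mer TEVs (canonical ENLYFQ|S). The substrate sits between flexible linkers in a Bxb1-sfGFP-TEVs-SsrA fusion, so cleavage stabilises Bxb1 and speeds flipping of a recombination array, read by NGS. The value is the raw area under the fraction-flipped curve over 0-4 h after rhamnose induction (AUC4h), with ≥20 reads per time point. It is not background-subtracted; inactive controls average about 0.047.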
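Also: Bxb1 expression induced with 0.2% (w/v) L-rhamnose at OD600 near 0.5, cultures sampled hourly, flipped fraction per protease–substrate barcode pair counted by paired-end Illumina sequencing.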

Variant | area with substrate ANLYFQS | area with substrate CNLYFQS | area with substrate GNLYFQS | area with substrate HNLYFQS | area with substrate INLYFQS | area with substrate KNLYFQS | area with substrate LNLYFQS | area with substrate MNLYFQS | area with substrate NNLYFQS | area with substrate RNLYFQS | area with substrate SNLYFQS | area with substrate TNLYFQS | area with substrate VNLYFQS | area with substrate WNLYFQS | area with substrate YNLYFQS | area with substrate DNLYFQS | area with substrate PNLYFQS | area with substrate FNLYFQS
MGESLFKGPRDYNPISSSICHLTNESDGHTTSLYGIGFGPFIITNKHLFRRNNGTLVVQSLHGVFKVKDTTTLQQHLVDGRDMIIIRMPKDFPPFPQKLKFREPQREERICLVTTNFQTKSMSSMVSDTSCTFPSGDGIFWKHWIQTKDGQCGSPLVSTRDGFIVGIHSASNFTNTNNYFTSVPINFMELLTNQEAQQWVSGWRLNADSVLWGGHKVFMVKPEEPFQPVKEATQL [K185I] | 0.071 | 0.0491 | 0.0955 | 0.0571 | 0.075 | 0.057 | 0.06 | 0.0605 | 0.0758 | 0.0651 | 0.0599 | 0.0699 | 0.061 | 0.0601 |  |  |  | 
MGESLFKGPRDYNPISSSICHLTNESDGHTTSLYGIGFGPFIITNKHLFRRNNGTLVVQYLHGVFKVKDTTTLQQHLVDGRDMIIIRMPKDFPPFPQKLKFREPQREERICLVTTNFQTKSMSSMVSDTSCTFPSGDGIFWKHWIQTKDGQCGSPLVSTRDGFIVGIHSASNFTNTNNYFTSVPKNFMELLTNQEAQQWVSGWRLNADSVLWGGHKVFMVKPEEPFQPVKEATQL [S60Y] | 0.0709 | 0.0661 | 0.0565 | 0.0601 | 0.11 | 0.0566 | 0.0663 |  | 0.0701 |  | 0.0384 | 0.0611 | 0.0663 | 0.0611 | 0.0463 |  |  | 
MGESLFKGPRDYNPISSSICHLTNESDGHTTSLYGIGFGPFIITNKHLFRRNNGTLVVQDLHGVFKVKDTTTLQQHLVDGRDMIIIRMPKDFPPFPQKLKFREPQREERICLVTTNFQTKSMSSMVSDTSCTFPSGDGIFWKHWIQTKDGQCGSPLVSTRDGFIVGIHSASNFTNTNNYFTSVPKNFMELLTNQEAQQWVSGWRLNADSVLWGGHKVFMVKPEEPFQPVKEATQL [S60D] | 0.0296 | 0.0558 | 0.0513 | 0.0527 |  |  | 0.0582 |  |  | 0.0559 | 0.0518 | 0.0605 |  | 0.0447 | 0.0696 | 0.0703 | 0.062 | 
MGESLFKGPRDYNPISSSICHLTNESDGHTTSLYGIGFGPVIITNKHLFRRNNGTLVVQSLHGVFKVKDTTTLQQHLVDGRDMIIIRMPKDFPPFPQKLKFREPQREERICLVTTNFQTKSMSSMVSDTSCTFPSGDGIFWKHWIQTKDGQCGSPLVSTRDGFIVGIHSASNFTNTNNYFTSVPKNFMELLTNQEAQQWVSGWRLNADSVLWGGHKVFMVKPEEPFQPVKEATQL [F41V] | 0.0805 | 0.0561 | 0.0635 | 0.0692 |  | 0.0714 |  | 0.0581 | 0.0618 |  | 0.0635 | 0.0554 | 0.0625 | 0.0597 | 0.0546 |  | 0.0633 | 0.0469
MGESLFKGPRDYNPISSSICHLTNESDGHTTSLYGIGFGPFIITNKHLFRRNNGTLVVQSLHGVFKVKDTTTLQQHLVDGRDMIIIRMPKDFPPFPQKLKFREPQREERICLVTTNFQTKSMSSMVSDTSCTFPSGDGIFWKHWIQTKDGQCGSPLVSTRDGFIVGIHSASNFTNTNNYFTSVPKNFMELLTNQEAQQWVSGWRLNADSVLWGGHKVFMVKPEEPFQPVWEATQL [K230W] | 0.0618 | 0.0629 | 0.0503 | 0.0665 | 0.0569 | 0.0171 |  |  | 0.0694 |  | 0.0645 | 0.0688 | 0.0683 | 0.0903 | 0.0586 |  | 0.0407 | 0.0586
MGESLFKGPRDYNPISSSICHLTNESDGHTTSLYGIGFGPFIITNKHLFRRNNGTLVVQSLHGVFKVKDTTTLQQHLVDGRDMIIIRMPKDFPPFPQKLKFREPQREERICLVTTNFQTKSMSSMVSDTSCTFPSGDGIFWKHWIQTKDGQCGSPLVSTRDGFIVGIHSASNFTNTNNYFTSVPKNFMELLTNQEAQQWVSGWRLNADSVLWGGHKVFMVKPEEPFQPVLEATQL [K230L] | 0.0545 | 0.0541 | 0.0608 |  | 0.0669 | 0.0586 | 0.0685 | 0.0653 |  |  |  | 0.0708 |  | 0.067 |  |  | 0.0669 | 0.0641
MGESLFKGPRDYNPISSSICHLTNESDGHTTSLYGIGFGPFIITNKHLFRRNNGTLVVQSLHGVFKVKDTTTLQQHLVDGRDMIIIRMPKDFPPFPQKLKFREPAREERICLVTTNFQTKSMSSMVSDTSCTFPSGDGIFWKHWIQTKDGQCGSPLVSTRDGFIVGIHSASNFTNTNNYFTSVPKNFMELLTNQEAQQWVSGWRLNADSVLWGGHKVFMVKPEEPFQPVKEATQL [Q105A] | 0.066 | 0.0722 | 0.0755 | 0.0074 |  |  | 0.0738 | 0.0646 | 0.0626 |  | 0.0691 | 0.0912 |  | 0.0615 |  |  |  | 0.0629
MGESLFKGPRDYNPISSSICHLTNESDGHTTSLYGIGFGPFIITNKHLFRRNNGTLVVQSLMGVFKVKDTTTLQQHLVDGRDMIIIRMPKDFPPFPQKLKFREPQREERICLVTTNFQTKSMSSMVSDTSCTFPSGDGIFWKHWIQTKDGQCGSPLVSTRDGFIVGIHSASNFTNTNNYFTSVPKNFMELLTNQEAQQWVSGWRLNADSVLWGGHKVFMVKPEEPFQPVKEATQL [H62M] | 0.053 | 0.0706 |  | 0.0665 |  |  |  | 0.0545 |  |  | 0.0794 |  |  |  | 0.0554 |  |  | 0.0685
MGESLFKGPRDYNPISSSICHLTNESDGHTTSLYGIGFGPFIITNKHLFRRNNGTLVVQSLHGVFKVKDTTTLQQHLVDGRDMIIIRMPKDFPPFPQKLKFREPQREERICLVTTNFQTKSMSSMVSDTSCTFPSGDGIFWKHWIQTKDGQCGSPLVSTRDGFIVGIHSASNFTNTNNQFTSVPKNFMELLTNQEAQQWVSGWRLNADSVLWGGHKVFMVKPEEPFQPVKEATQL [Y179Q] | 0.0174 |  |  | 0.0617 | 0.0611 | 0.0592 | 0.0494 |  | 0.0642 | 0.0506 | 0.0647 | 0.0637 | 0.0583 | 0.0594 | 0.0628 | 0.0602 | 0.0605 | 0.0656
